Source: the supplement of paper PMC4967469

Experiments:
Assay in all cases: Viability of human cancer cell lines after 72 h of drug (GDSC screen)
PI-103 = compound: Oc1cccc(-c2nc(N3CCOCC3)c3oc4ncccc4c3n2)c1 [PI-103]; settings: top dose 10.24 µM
Procedure: (§1)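 Human cancer cell lines in 384-well plates, medium with 10% serum, drug for 72 h over a 256-fold dose range (nine 2-fold or five 4-fold steps up to the top dose). Adherent lines were fixed and stained with the nucleic acid dye Syto60, suspension lines read with resazurin; signal relative to control wells, capped at 0 and 100%. One two-parameter sigmoid per drug and line, fitted in a mixed model over all curves with the slope shared within a line.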

Tretinoin = compound: CC1=C(/C=C/C(C)=C/C=C/C(C)=C/C(=O)O)C(C)(C)CCC1 [Tretinoin]; settings: top dose 10 µM; top dose inferred
Procedure: as §1

BX-795 = compound: O=C(NCCCNc1nc(Nc2cccc(NC(=O)N3CCCC3)c2)ncc1I)c1cccs1 [BX-795]; settings: top dose 5 µM; top dose inferred
Procedure: as §1

GSK690693 = compound: CCn1c(-c2nonc2N)nc2c(C#CC(C)(C)O)ncc(OC[C@H]3CCCNC3)c21 [GSK690693]; settings: top dose 10.24 µM; top dose inferred
Procedure: as §1

SB-505124 = compound: Cc1cccc(-c2[nH]c(C(C)(C)C)nc2-c2ccc3c(c2)OCO3)n1 [SB-505124]; settings: top dose 10 µM; top dose inferred
Procedure: as §1

UNC0638 = compound: COc1cc2c(NC3CCN(C(C)C)CC3)nc(C3CCCCC3)nc2cc1OCCCN1CCCC1 [UNC0638]
Procedure: as §1

[1] = top dose 20 µM, screen: GDSC drug entry 1236, top dose inferred
[2] = top dose 40 µM, screen: GDSC drug entry 245

Cell Line | AUC (PI-103) | IC50 (PI-103) [µM] | AUC (Tretinoin) | IC50 (Tretinoin) [µM] | AUC (BX-795) | IC50 (BX-795) [µM] | AUC (GSK690693) | IC50 (GSK690693) [µM] | AUC (SB-505124) | IC50 (SB-505124) [µM] | AUC (UNC0638; [1]) | IC50 (UNC0638; [1]) [µM] | AUC (UNC0638; [2]) | IC50 (UNC0638; [2]) [µM]
IPC-298 (melanoma, adherent) | 0.581 | 1.06 | 0.972 | > 10 | 0.935 | > 5 | 0.983 | > 10.2 | 0.979 | > 10 | 0.694 | 4.35 | 0.543 | 3.27
JEG-3 (urogenital system, adherent) | 0.991 | > 10.2 | 0.991 | > 10 | 0.858 | 3.47 | 0.991 | > 10.2 | 0.95 | > 10 | 0.901 | > 20 | 0.991 | > 40
JHH-1 (liver, adherent) | 0.189 | 0.0677 | 0.947 | > 10 | 0.917 | > 5 | 0.947 | > 10.2 | 0.983 | > 10 | 0.874 | > 20 | 0.701 | 9.75
JHH-2 (liver, adherent) | 0.351 | 0.24 | 0.976 | > 10 | 0.884 | > 5 | 0.974 | > 10.2 | 0.937 | > 10 | 0.984 | > 20 | 0.867 | > 40
JHH-4 (liver, adherent) | 0.935 | > 10.2 | 0.973 | > 10 | 0.819 | 2.84 | 0.972 | > 10.2 | 0.965 | > 10 | 0.962 | > 20 | 0.982 | > 40
JHH-7 (liver, adherent) | 0.984 | > 10.2 | 0.988 | > 10 | 0.897 | > 5 | 0.987 | > 10.2 | 0.865 | 7.92 | 0.982 | > 20 | 0.861 | 30.6
JHOS-2 (ovary, adherent) | 0.809 | 6.42 | 0.972 | > 10 | 0.742 | 1.76 | 0.959 | > 10.2 | 0.977 | > 10 | 0.969 | > 20 | 0.901 | > 40
JHOS-3 (ovary, adherent) | 0.783 | 5.61 | 0.95 | > 10 | 0.984 | > 5 | 0.983 | > 10.2 | 0.982 | > 10 | 0.917 | > 20 | 0.893 | > 40
JHU-011 (head and neck, adherent) | 0.324 | 0.208 | 0.929 | > 10 | 0.762 | 1.76 | 0.916 | > 10.2 | 0.984 | > 10 | 0.795 | 9.13 | 0.656 | 6.73
JHU-022 (head and neck, adherent) | 0.789 | 5.9 | 0.877 | > 10 | 0.795 | 3.06 | 0.977 | > 10.2 | 0.978 | > 10 | 0.827 | 16.9 | 0.974 | > 40

The IC50 comes from the fitted curve, where viability falls to half of the control; a fit beyond the top or the lowest dose is shown as a bound at that dose. AUC sums up the same curve from the lowest dose to the 256-fold higher top dose; values near 1 show little effect. For some assays here: The top dose, if marked as inferred, was calculated from the reported fits. For some assays here: An entry number marks a drug with two screens in the source, which often give different values.
